# Laboratory results reported in the RNAGym collection of RNA variant scans (doi:10.7554/elife.90254).
# Read counts are not given, so values of variants with three or more changes are uncertain.
# B1: OR4K15 (parent)
# chain: GUUAACGGUCAUAGGCCAUGGAAACUAGGAGCACCAUUUCGCUGCCAGUGAAGAAAUGAACAAAGAAAAUCUGGGCCAGGCAGGCAUCAAAAGAAAUAGUCUUGCGCUCAACCAGAAAGUCUGUAAUCAUUUUAAGGGUA
# Variants of: B1
# Test: self-cleavage, relative activity (ratio to wild type); higher = more cleavage; in vitro, sequencing; the parent is a self-cleaving ribozyme
row,Variant,self-cleavage
1,GUUAACGGUCAUAGGCCAUGAAAACUAGGAGCACCAUUUCGCUGCCAGUGAAGAAAUGAGCAAAGAAAAUCUGGGCCAGGCAGGCAUCAGAGGAAAUAGUCUGGCGCUCAACCAGAAAGUCUGAAAUCAUCUUAAGGGUA [G21A A60G A90G A92G U103G U124A U131C],0
2,GUUAACGGUCAUAGGCCAUGAAAACUAGGAGCACCAUUUCGCUGCCAGUGAAGAAAUGAACAAAGAAAAUCUGGGCCAGGCAGGCGUCAAAAGAAAUAGUCUUGCGCUCAACCAGAAAGUCCGUAAUCAUUUUAAGGGUA [G21A A86G U122C],0.1
3,GUUAACGGUCAUAGGCCAUGAAAACUAGGAGCACCAUUUCGCUGCCAGUGAAGAAAUGAACAAAGAAAAUCUGGGCCAGGCAGGCUUCAAAAGAAGUAGUCUUGCGCUCAACCAGAAAGUCUGUAAUCAUUUUAAGGGUA [G21A A86U A96G],2.34
4,GUUAACGGUCAUAGGCCAUGAAAACUAGGAGCACCAUCUCGCUGCCAGUGAAGAAAUGGACAGAGAAAAUCUGGGCCAGGCAGGCAUCAAAAGGAAUAGUCUUGCGCUCAACCAGAAAGUCUGUAAUCAUUUUAAGGGUA [G21A U38C A59G A63G A94G],1.56
5,GUUAACGGUCAUAGGCCAUGAAAACUAGGAGCACCAUCUCGCUGCUAGUGAAGAAAUGAACAAAGAAAAUCUGGGCCAGGCAGGCAUCGAAAGAAAUAGUCUUGCGCUCAACCAGAAAGUCUGUAAUCAUAUUAAGGGUA [G21A U38C C46U A89G U131A],1.74
6,GUUAACGGUCAUAGGCCAUGAAAACUAGGAGCACCAUCUCGCUGCCAGUGAAGAAAUGAACAAAGAAAAUCUGGGCCAGGCAGGCAUCAAAAGAAAUAGUCUUGCGCGCAACCAGAAAGUCUGUAAUCAUUUUAAGGGUA [G21A U38C U108G],0.01
7,GUUAACGGUCAUAGGCCAUGAAAACUAGGAGCACCAUUCCGCUGCCAGUGAAGAAAUGAACAAAGAAAAUCUGGGCCAGGCAGGCAUCAAAAGAAAUAGUCCUGCGCUCAACCAGAAAGUCUGUAAUCAUUUUAAGGGUA [G21A U39C U102C],1.92
8,GUUAACGGUCAUAGGCCAUGCAAACUAGGAGCACCAUUUCGCUGCCAGCGAAGAAAUGAACAAAGAAAAUCUGGGCCAGGCAGGCAUCAAAAGAAAUAGUCUUGCGCUCAACCAGAAAGUCUGUAAUCGUUUUGAGGGUA [G21C U49C A129G A134G],0.45
9,GUUAACGGUCAUAGGCCAUGUGAACUAGGGGCGCCAUUUCGCUGCCAGUGAAGAAAUGAACAAAGGAAAUCUGGGCCAGGCAGGCAUCAAAAGAAAUAGUCUUGCGCUCAACCAGAAAGUCUGUAAUCAUUUCAAGGGUA [G21U A22G A30G A33G A66G U133C],0.63
10,GUUAACGGUCAUAGGCCAUGUAAACUAGGAGCACCAUUUCGCUGCCAGUGAAGUAAUGAACAAAGAAAAUCUGGGCCAGGCAGGCAUCAAAAGAAAUAGUCUUGCGCUCAACCAGAAAGUCAGUAAUCAUUUUAAGGGUA [G21U A54U U122A],2.07
11,GUUAACGGUCAUAGGCCAUGUAAACUAGGAGCACCAUUUCGCUGCCAGUGAAGAAAUGAACAAAGAAAAUCUGGGCCAGGCAGGCAUCAAAAGAGAUAGUCUUGCGCUCAACCUGAAAGUCUGUAAUCAUUUUAAGGGUA [G21U A95G A114U],0.13
12,GUUAACGGUCAUAGGCCAUGUAAACUAGGAGCACCAUUUCGCUGCCAGUGAAGAAAUGAACAAAGAAAAUCUGGGCCAGGCAGGCAUCAAAAGAAAUAGUCUUGCGCUCAACCAGAAAGUCUGUAAUCUUUUCAAGGGUA [G21U A129U U133C],0.65
13,GUUAACGGUCAUAGGCCAUGGCAACUAGGAGCACCAUUUCGCUGCCAGUGAAGAAAUGAACAAAGAAAAUCUGGGCCUGGCAGGCAUCAAAAGAAAUAGUCUUGCGCUCAACCAGAAAGUCUGUGAUCAUUUUAAGGGUA [A22C A78U A125G],0.19
14,GUUAACGGUCAUAGGCCAUGGCAACUAGGAGCACCAUUUCGCUGCCAGUGAAGAAAUGAACAAAGAAAAUCUGGGCCAGGCAGGCAUCAGAAGAAAUAGUCUCGCGCUCAACCAGAAGGUCUGUAAUCAUUUUAAGGGUA [A22C A90G U103C A118G],0.06
15,GUUAACGGUCAUAGGCCAUGGCAACUAGGAGCACCAUUUCGCCGCCAGUGAAGAAAUGAACAAAGAAAAUCUGGGCCAGGCAGGCAUCAGAAGAAAUAGUCUUGCGCUCAACCAGAAAGUCUGUCAUCAUUUUAAGGGUA [A22C U43C A90G A125C],0
16,GUUAACGGUCAUAGGCCAUGGCAACUAGGAGCACCAUUUCGCUGCCAGCGAAGAAAUGAACAAAGAAAAUCUGGGCCAGGCAGGCAUCAAAAGAAAUAGUCUUGCGCUCGACCAGAAAGUCUGUAAUCAUUUUAAGGGUA [A22C U49C A110G],0.17
17,GUUAACGGUCAUAGGCCAUGGGGACUAGGAGCACCAUUUCGCUGCCAGUGGAGAAAUGAGCAAAGAAAAUCUGGGCCAGGCAGGCACCAAAAGAAAUAGUCCUGCGCUCAACCAGAUAGUCUGUAAUCAUUUUAAGGGUA [A22G A23G A51G A60G U87C U102C A117U],0.79
18,GUUAACGGUCAUAGGCCAUGGGGACUAGGAGCACCAUUUCGCUGCCAGUGAAGGAAUGAACAAAGAAAAUCUGGGCCUGGCAGGCAUCAAAAGAAAUAGUCUUGCGCUCAACCAGAAAGUCUGUAAUCAUUUUAAGGGUA [A22G A23G A54G A78U],0.32
19,GUUAACGGUCAUAGGCCAUGGGGACUAGGAGCACCAUUUCGCUGCCAGUGAAGAAAUGAACAAAGAGAAUCUGGGCCAGGCAGGCAUCAAAAGAAAUAGUCCUGCGCUCAACCAGAAAGUCUGUAAUCAUUUUAAGGGUA [A22G A23G A67G U102C],1
20,GUUAACGGUCAUAGGCCAUGGGGACUAGGAGCACCAUUUCGCUGCCAGUGAAGAAAUGAACAAAGAAGAUCUGGGCCAGGCAGGCAUCAGAAGAAAUAGUCUUGCGCUCAACCAGAAAGUCUGUAAUCAUUUUAAGGGUA [A22G A23G A68G A90G],1.35
21,GUUAACGGUCAUAGGCCAUGGGGACUAGGAGUACCAUUUCGCUGCCAGUGAAGAAAUGAACAAAGAAAAUCUGGGCCAGGCAGGCAUCAAAAGAAAUAGUCUCGCGCUCAACCAGAAAGUCUGUAAUCAUUUUAAGGGUA [A22G A23G C32U U103C],0.84

row,Variant,self-cleavage
1,GUUAACGGUCAUAGGCCAUGGGGACUAGGAGCACCAUUUCGCUACCAGUGAAGAAAUGAACAAAGAAAGUCUGGGCCAGGCAGGCAUCAAAAGAAAUAGUCUUGCGCUCAACCAGAAAGUCGGUAAUCAUUUUAAGGGUA [A22G A23G G44A A69G U122G],1.94
2,GUUAACGGUCAUAGGCCAUGGGGACUAGGAGCACCAUUCCGCUGCCAGUGAAGAAAUGAACAAAGAAAAUCUGGGCCAGGCAGGCAUCAAAAGAAAUAGUCUUGCGCUCAACCAGAAAGUCUGUAAUCAUUUUAAGGGUA [A22G A23G U39C],0.79
3,GUUAACGGUCAUAGGCCAUGGGGACUAGGAGCACCAUUUCGCAGCCAGUGAAGAAAUGAACAAAGAAAAUCUGGGCCAGGCAGGCAUCAAAAGAAAUAGUCCUGCGCUCAACCAGAAAGUCUGUAAUCAUUUUAAGGGUA [A22G A23G U43A U102C],1.72
4,GUUAACGGUCAUAGGCCAUGGGGACUAGGAGCACCAUUUCGCUGCCAGAGAAGAAAUGAACAAAGAAAAUCUGGGCCAGGCAGGCAUCAAAAGAAAUAGUCUUGCGCUCAACCAGAAAGUCUGUAAUCAUUUUAAGGGAG [A22G A23G U49A U139A A140G],0.37
5,GUUAACGGUCAUAGGCCAUGGGGACUAGGAGCACCAUUUCGCUGCCAGCGAAGAAAUGAACAAAGAAAAUCUGGGCCAGGCAGGCAUCAAAAGAAAUAGUCUUGCGCUCAACCAGAAAGUCUGUAAUCAUCUUAAGGGUA [A22G A23G U49C U131C],0.29
6,GUUAACGGUCAUAGGCCAUGGGUACUAGGAGCACCAUUUCGCUGCCAGUGAAGAAAUGAACAAAGAAAAUCUGGGCCUGGCAGGCAUCAGAAGAAGUAGUCUUGCGCACAACCAGAAAGUCUGUAAUCAUUUUAAGGGUA [A22G A23U A78U A90G A96G U108A],0.02
7,GUUAACGGUCAUAGGCCAUGGGAGCUGGGAGCACCAUUUCGCUGCCAGUGAAGAAAUGAACAACGAAAAUCUGGGCCAGGCAGGCAUCAGAAGAAAUAGUCUUGCGCUCAACCAGAAAGUCUGUAAUCAUUUUAAGGGUA [A22G A24G A27G A64C A90G],1.18
8,GUUAACGGUCAUAGGCCAUGGGAGCUAGGAGCACCAUUUCGCUGCCAGUGAGGAAAUGAACAAAGAAAAUCUGGGCCAGGCAGGCAUCAAAAGAAAUAGUCUUGCGCUCAACCAGAAAGUCUGUAAUCAUUUUAAGGGAA [A22G A24G A52G U139A],1.24
9,GUUAACGGUCAUAGGCCAUGGGAGCUAGGAGCACCAUUUCGCUGCCAGUGAAGAAAUGAACAAAGAAAAUCUGGGCCAGGCAGGCGUCAAAAGAAAUAGUCUUGCGCUCAACCAGAAAGUCUGUAAUCAUUUUAAGGGUA [A22G A24G A86G],1.23
10,GUUAACGGUCAUAGGCCAUGGGAGCUAGGAGCACCAUUUCGCUGCCAGUGAAGAAAUGAACAAAGAAAAUCUGGGCCAGGCAGGCAUCAAAAGAAUUAGCCUUGCGCUCAACCAGAAUGUCUGUAAUCAUUUUAAGGGUA [A22G A24G A96U U100C A118U],0.17
11,GUUAACGGUCAUAGGCCAUGGGAGCCAGGAGCACCAUUUCGCUGCCAGUGAAGAAAUGAACAAAGAAAAUCUGGGCCAGGCAGGCAUCAAAAGAAAUAGUCUUGCGCUCAACCAGAAAGUCUGUAAUCAUUUUAAGGGUA [A22G A24G U26C],0.84
12,GUUAACGGUCAUAGGCCAUGGGAGCUAGGAGCACCAUUCCGCUGCCAGUGAAGAAAUGAACAAAGAAAAUCUGGGCCAGGCAGGCAUCAAAAGAAAUAGACUUGCGCUCAACCAGAAAGUCUGUAAUCAUUUUAAGGGUA [A22G A24G U39C U100A],0.9
13,GUUAACGGUCAUAGGCCAUGGGAGCUAGGAGCACCAUUUCGCUGCCAGCGAAGAAAUGAACAAAGAAAAUCUGGGCCUGGCAGGCAUCAAAAGAAAUAGUCUUGCGCUCAACCGGAGAGUCUGUAAUCAUUUUAAGGGUA [A22G A24G U49C A78U A114G A117G],0.03
14,GUUAACGGUCAUAGGCCAUGGGAUCUAGGAGCACCAUUUCGCUGCCUGUGAAGGAAUGAACAAAGAAAAUCUGGGCCAGGCAGGCAUCAAAGGAAGUAGUCUUGCGCUCAACCAGAUAGUCUGUAAUCAUUUUAAGGGUA [A22G A24U A47U A54G A92G A96G A117U],0.47
15,GUUAACGGUCAUAGGCCAUGGGAUCUAGGAGCACCAUUUCGCUGCCAGUGAAGAAGUGAACAAAGAAAAUCUGGGCCAGGCAGGCAUCAAAAGAAAUAGUCUUGCGCUCAACCAGAAAGUCUGUAAUCAUUUUAAGGGUA [A22G A24U A56G],1.54
16,GUUAACGGUCAUAGGCCAUGGGAACUGGGAGCCCCAUUUCGCUGCCAGUGAAGAAAUGAACAAAGAAAAUCUGGGCCAGGCAGGCAUCAAAAGAAAUAGUCUUGCGCUCAACCAGAAAGUCUGUAAUCAUCUUAAGGGUA [A22G A27G A33C U131C],2.19
17,GUUAACGGUCAUAGGCCAUGGGAACUGGGAGCACCAUUUCGCUGCCAGUGAAGAAAUGAACAAAGAAAAUCUGGGCCAGGCAGGCAUCAAAAGAAAUAGUCUUGCGCUCAACCAGAAGGUCUGUAAUCAUUUUAGGGGUA [A22G A27G A118G A135G],0.37
18,GUUAACGGUCAUAGGCCAUGGGAACUGGGAGCACCAUUUCGCUGCCAGUGAAGAAACGAACAGAGAAAAUCUGGGCCAGGCAGGCAUCAAAAGAAAUAGUCUUGCGCCCAACCAGAAAGUCUGUAAUCAUUUUAAGGGUA [A22G A27G U57C A63G U108C],0
19,GUUAACGGUCAUAGGCCAUGGGAACUUGGAGCACCAUUUCGCUGCCAGUGAAGAAAUGAACAAAGAAAAUCUGGGCCAGGCAGGCAUCAAAAGAAAUAGUCUUGCGCUCAACCAGAAAGUCUGUACUCAUUUUAAGGGUA [A22G A27U A126C],0.42
20,GUUAACGGUCAUAGGCCAUGGGAACUAGGGGCACCAUUUCGCUGCCUGUGAAGAAAUGAACAAAGAAAAUCUGGGCCAGGCAGGCAUCAAAAGAAAUAGUCUUGCGCUCAUCCAGAAAGUCUGUAAUCAUCUUAAGGGUA [A22G A30G A47U A111U U131C],0.03
